# Measurements: PubChem BioAssay AID1745845 (National Center for Advancing Translational Sciences (NCATS), 2022)
# Out of some 360,000 compounds screened, about 2,600 (0.72%) were called active. This list was built around the results that the source calls inconclusive (neither active nor inactive); the mix of calls is not that of the screen. The call rests on the fitted dose curve; in most records, active means well fitted inhibition curve with a large enough effect; inconclusive means small, poorly fitted or top-dose-only effect; inactive means no such curve, though single readings can be large or run the other way. Potencies beside an inconclusive call are fits to weak or partial responses and may not hold up.
# Assay: Primary qHTS for Inhibitors of ATXN expression; further: nearly all actives have a fitted effect of over 55% in size
# Conditions: HEK-293 ATXN2-luciferase reporter, luminescence, 24 h; activity change, negative = inhibition: at 57 µM (top of the series)
# Outline: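 qHTS (up to 57 uM final) was run with 24 h compound exposure of reporter cells at 37 °C. Each well was multiplexed: SteadyGlo luminescence measured ATXN2-luciferase expression after a fluorogenic Gly-Phe-AFC viability readout (25 uM final).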
# On the % scale 0 is the no-effect control and ±100 the full control effect; potency means the concentration at half of the fitted maximal effect; tags describe the fitted curve by direction and shape.
SMILES,Potency,"activity change, negative = inhibition"
COc1ccc(S(=O)(=O)/N=C2\C=C(Nc3ccc(O)cc3)C(=O)c3ccccc32)cc1,active: 3.16 µM,–
COc1cccc(-c2nc(CS(=O)(=O)CC(=O)Nc3c(C)cccc3C)c(C)o2)c1,–,inactive: -11.7%
CC(C)[C@@H]1CC[C@@H](C)C[C@H]1OC(=O)C[n+]1cc(-c2ccc(Cl)cc2)n2c1CCCCC2,"inconclusive: 31.6 µM [inhibitor, partial curve, poor fit]",–
Cc1ccnc(NC(=O)CCC(=O)N(CC(=O)NCc2ccccc2)Cc2ccc(F)cc2)c1,"inconclusive: 25.1 µM [inhibitor, single point]",–
O=C(NC1CCN(Cc2ccccc2)CC1)c1cccc(S(=O)(=O)Nc2ccc(SC(F)F)cc2)c1,"inconclusive: 12.6 µM [inhibitor, partial curve, poor fit]",–
COc1cc2c(c(OC)c1OC)-c1ccc(SC)c(=O)cc1C(NC=O)CC2 (centres undefined),–,inactive: -14.3%
Cc1cc(/C=N/n2c(COc3ccccc3C)nc3ccccc3c2=O)c(O)c([N+](=O)[O-])c1,"inconclusive: 3.55 µM [inhibitor, full curve, poor fit]",–
COc1ccc([C@H]2C[C@H](n3cc(-c4ccc(F)cc4)nn3)[C@@H](O)CN2CC2CCCCC2)cc1,"inconclusive: 39.8 µM [inhibitor, partial curve, poor fit]",–
CCn1c2ccccc2c2cc(NC(=O)c3ccc(=O)oc3)ccc21,"inconclusive: 39.8 µM [inhibitor, single point]",–
CN(C)CCCNCCCNC(=O)c1ccco1,"inconclusive: 5.32 µM [inhibitor, single point]",–
N/C(=C/C(=O)c1ccccc1O)C(F)(F)F,–,inactive: 6.13%
Cc1cc(N2CCCCC2)nc(NCc2ccccc2)n1,"inconclusive: 20 µM [inhibitor, single point]",–
CC1(C)[C@H](C(=O)O)N2C(=O)C[C@H]2S1(=O)=O,"inconclusive: 15.3 µM [inhibitor, partial curve, poor fit]",–
CN1CCN(c2ccccc2NC(=O)COc2ccc(C3CCCCC3)cc2)CC1,"inconclusive: 39.8 µM [inhibitor, single point]",–
Cc1ccc(NC(=O)CNc2ccc(Cl)c(Cl)c2)cc1S(=O)(=O)N(C)C,"inconclusive: 31.6 µM [inhibitor, single point]",–
NC(=O)N=Nc1c2[nH]c3ccccc3nc-2c2ccccc12,"inconclusive: 10 µM [inhibitor, partial curve]",–
C=CC[C@@H](CC(=O)N(CCO)Cc1ccccc1)C(=O)N[C@H](COC(=O)[C@H](CC=C)CC(=O)OC(C)(C)C)Cc1c[nH]c2ccccc12,"inconclusive: 28.2 µM [inhibitor, single point]",–
Cc1cc(Nc2ncc3c(n2)N(C)C(=O)N(c2cc(NC(=O)c4cccc(C(F)(F)F)c4)ccc2C)C3)n(C)n1,"inconclusive: 19.3 µM [inhibitor, partial curve]",–
Cc1cc(/C=N/n2c(COc3ccccc3)nc3ccccc3c2=O)c(O)c([N+](=O)[O-])c1,"inconclusive: 15.8 µM [inhibitor, partial curve]",–
CC(C)(C)NC(=O)CN(C(=O)c1snc(C(=O)NC2CCCCC2)c1N)c1ccccc1F,–,inactive: -12.5%
Fc1ccc(CNC(=S)Nc2ccc(Cl)cc2)cc1,–,inactive: -16.4%
Cc1cc2c(C)nc3ccccc3c2o1,–,inactive: -3.15%

SMILES,Potency,"activity change, negative = inhibition"
CSc1ccc(CN2CCC(C)(Oc3ccc(-n4ccnc4)cc3)C2)cc1 (centres undefined),"inconclusive: 12.6 µM [inhibitor, partial curve, poor fit]",–
CN(CC(=O)O)Cc1oc(CO)cc(=O)c1O,–,inactive: 5.11%
Cc1ccc(S(=O)(=O)N(CC(=O)NCCSCc2ccco2)c2cc(C)ccc2C)cc1,–,inactive: -6.15%
CCCCc1c(C)nc2c(-c3ccc(Cl)cc3)c(C)[nH]n2c1=O,"inconclusive: 4.47 µM [inhibitor, single point]",–
Cn1c(N)c(C(=O)COC(=O)c2cc(S(=O)(=O)N3CCOCC3)ccc2F)c(=O)n(C)c1=O,"inconclusive: 39.8 µM [inhibitor, single point]",–
C=CCn1c(C)cc(C2=NNC(=NC(C)(C)C)SC2)c1C,"inconclusive: 11.2 µM [inhibitor, partial curve, poor fit]",–
O=S(=O)(NCc1ccc(Cl)cc1)c1ccc2[nH]c3c(c2c1)CCCC3,"inconclusive: 39.8 µM [inhibitor, single point]",–
CCOC(=O)c1cccc(NS(=O)(=O)c2ccc3[nH]c4c(c3c2)CCCC4)c1,"inconclusive: 35.5 µM [inhibitor, partial curve, poor fit]",–
CCOC(=O)c1ccc2nc(C)cc(Nc3ccc(OC(C)C)cc3)c2c1,"inconclusive: 15.8 µM [inhibitor, partial curve]",–
Nc1ccc2ncccc2c1N,–,inactive: -7.22%
CCCCc1c(-c2ccc(F)cc2F)ncn1CCc1ccccc1OC,"inconclusive: 35.5 µM [inhibitor, single point]",–
CCCCn1c(=NC(=O)c2c(-c3c(F)cccc3Cl)noc2C)c(C(=O)OCC)cc2c(=O)n3ccccc3nc21,–,inactive: -1.34%
CC(C)N1CCC1(C)C(=O)Nc1nc2ccccc2[nH]1 (centres undefined),–,inactive: 18.6%
CCOC(=O)c1nc(Nc2ccc(N3CCC(C)CC3)cc2)c2ccccc2n1,"inconclusive: 39.8 µM [inhibitor, partial curve, poor fit]",–
O=C(c1ccc(C(F)(F)F)cc1)C1CCCN(Cc2cccn2-c2ncccn2)C1 (centres undefined),"inconclusive: 7.94 µM [inhibitor, partial curve, poor fit]",–
Oc1ccccc1Nc1nc(NCC2CCCO2)c2ccccc2n1 (centres undefined),"inconclusive: 28.2 µM [inhibitor, single point]",–
COc1cccc(N2CCN(CC(=O)N3CCN(S(=O)(=O)c4ccc(Cl)cc4)CC3)CC2)c1,–,inactive: -10.4%
CCc1nc(Nc2cccc(O)c2)c2oc3ccccc3c2n1,"inconclusive: 39.8 µM [inhibitor, single point]",–
O=C(Nc1cccc(C(F)(F)F)c1)c1ccc(N2CCNCC2)c([N+](=O)[O-])c1,"inconclusive: 2.67 µM [inhibitor, partial curve, poor fit]",–
CCN(CCNCC(O)COc1ccccc1C(C)C)c1cccc(C)c1 (centres undefined),"inconclusive: 31.6 µM [inhibitor, single point]",–
CCc1ccc2oc(C(=O)NCCc3ccc(OC)c(OC)c3)cc(=O)c2c1,"inconclusive: 28.2 µM [inhibitor, single point]",–
COc1cccc(OC)c1C(=O)OCC(=O)N(c1ccccc1)C1CCCCC1,–,inactive: -15.7%

SMILES,Potency,"activity change, negative = inhibition"
O=C(Nc1ccc(-c2nc3ccccc3s2)cc1)C1=COCCO1,"inconclusive: 10 µM [inhibitor, single point]",–
CCOC(=O)C1=C(CN2CCN(c3cc(C)ccc3C)CC2)NC(=O)NC1c1ccccc1 (centres undefined),"inconclusive: 39.8 µM [inhibitor, single point]",–
Cc1ccc2c(c1)c1c(c(=O)n(-c3ccccc3)c(=O)n1CC(=O)NCCC1=CCCCC1)n2C,–,inactive: 5.85%
CCCc1cc(=O)n2nc(N3CCC(C(=O)N4CCN(c5cccc(OC)c5)CC4)CC3)sc2n1,"inconclusive: 7.94 µM [inhibitor, partial curve, poor fit]",–
COc1cccc2c3c(c(C)nc12)CCN3c1ccccc1,"inconclusive: 0.336 µM [inhibitor, full curve]",–
Cc1cccc(CN2CCN(C3CN(Cc4cn(Cc5cccc(Cl)c5)nn4)S(=O)(=O)C3)CC2)c1 (centres undefined),"inconclusive: 14.1 µM [inhibitor, partial curve, poor fit]",–
CCCNC(=O)c1c(N)n(-c2cccc(OC)c2)c2nc3ccccc3nc12,"inconclusive: 39.8 µM [inhibitor, partial curve, poor fit]",–
Cc1cc(C)c2oc(C(=O)NCc3ccccc3)cc(=O)c2c1,–,inactive: 3.13%
Cc1ccc(S(=O)(=O)N2CCOCC2)cc1C(=O)N(C)CCOc1ccc(Cl)cc1,"inconclusive: 28.2 µM [inhibitor, partial curve]",–
CCCCCCCCN1C(=O)[C@H](CC(=O)NCCc2ccccc2OC)C[C@@]2(C(=O)OC)CCCCC=C12,"inconclusive: 20 µM [inhibitor, single point]",–
Cc1ccc(C(=O)Nc2cccc(C(=O)O)c2)cc1,active: 2.51 µM,–
CCOc1ccc(CCN2C(=S)N([C@@H](CC(C)C)CN3CCCC3CN3C(=S)NC[C@@H]3CC(C)C)C[C@@H]2Cc2ccc(O)cc2)cc1 (some centres undefined),"inconclusive: 28.2 µM [inhibitor, partial curve, poor fit]",–
O=C(NCc1cc(C(F)(F)F)ccc1Cl)c1cccc2c1C(=O)c1ccc(N3CCOCC3)cc1S2(=O)=O,"inconclusive: 22.4 µM [inhibitor, partial curve]",–
O=S(=O)(c1ccc(Cl)c(Cl)c1)c1snnc1-c1ccccc1,active: 28.2 µM,–
O=C(CCn1cnc(-c2ccccc2)c1-c1ccccc1)N/N=C/c1ccccc1O,"inconclusive: 3.55 µM [inhibitor, full curve]",–
COc1ccc(OC)c(-c2csc(NC(=O)Cc3ccccc3F)n2)c1,–,inactive: -12.8%
O=C(Nc1cc(C(F)(F)F)ccc1Cl)c1cccc(N2C(=O)CCC2=O)c1,–,inactive: -7.52%
N#Cc1c(-c2ccccc2)nc(SCC(=O)N(c2ccccc2)c2ccccc2)[nH]c1=O,–,inactive: 4.42%
Cc1ccc(S(C)(=O)=NC(=O)c2cc(C)on2)cc1 (centres undefined),–,inactive: -16.3%
CCOC(=O)c1c(C)nn(-c2ccc(NC(=O)c3c(C)noc3C)cc2)c1C,"inconclusive: 10 µM [inhibitor, partial curve, poor fit]",–
